The supplement of paper PMC12217912
This is one part of the list. Sequences were assembled here from the parent chain. Values near 0.05 are background.

B1: TEV protease; numbered along this chain (parent)
chain: MGESLFKGPRDYNPISSSICHLTNESDGHTTSLYGIGFGPFIITNKHLFRRNNGTLVVQSLHGVFKVKDTTTLQQHLVDGRDMIIIRMPKDFPPFPQKLKFREPQREERICLVTTNFQTKSMSSMVSDTSCTFPSGDGIFWKHWIQTKDGQCGSPLVSTRDGFIVGIHSASNFTNTNNYFTSVPKNFMELLTNQEAQQWVSGWRLNADSVLWGGHKVFMVKPEEPFQPVKEATQL

Variants of: B1
Experiment: raw area under fraction-flipped curve 0-4 h after induction (AUC4h, not background-subtracted), DNA-recorder readout of cleavage of the substrate (dimensionless); higher = more cleavage of the substrate by the protease variant
Details: temperature: 34 °C; time window: 0-4 h after rhamnose induction
Experimental: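 In vivo DNA recorder in E. coli TOP10(DE3) ΔrhaA at 34 °C. Each TEVp single-site mutant (parent TEVp 0) is paired with a single-site variant of the 7-mer TEVs (canonical ENLYFQ|S). The substrate sits between flexible linkers in a Bxb1-sfGFP-TEVs-SsrA fusion, so cleavage stabilises Bxb1 and speeds flipping of a recombination array, read by NGS. The value is the raw area under the fraction-flipped curve over 0-4 h after rhamnose induction (AUC4h), with ≥20 reads per time point. It is not background-subtracted; inactive controls average about 0.047.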
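Also: Bxb1 expression induced with 0.2% (w/v) L-rhamnose at OD600 near 0.5, cultures sampled hourly, flipped fraction per protease–substrate barcode pair counted by paired-end Illumina sequencing.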

Variant	area with substrate ENLYFQA	area with substrate ENLYFQC	area with substrate ENLYFQD	area with substrate ENLYFQF	area with substrate ENLYFQG	area with substrate ENLYFQH	area with substrate ENLYFQI	area with substrate ENLYFQL	area with substrate ENLYFQM	area with substrate ENLYFQN	area with substrate ENLYFQP	area with substrate ENLYFQQ	area with substrate ENLYFQR	area with substrate ENLYFQS	area with substrate ENLYFQT	area with substrate ENLYFQV	area with substrate ENLYFQW	area with substrate ENLYFQK	area with substrate ENLYFQY
MGESLFKGPRDYNPISSSICHLTNESDGHTTSLYGIGFGPFIITNKHLFRRNNGTLVVQSLHGVFKVKDTTTLQQHLVDGRDMIIIRMPKDFPPFPQKLKFREPQREERICLVTTNFQTKSMSSMVSDTSCTFPYGDGIFWKHWIQTKDGQCGSPLVSTRDGFIVGIHSASNFTNTNNYFTSVPKNFMELLTNQEAQQWVSGWRLNADSVLWGGHKVFMVKPEEPFQPVKEATQL [S135Y]	0.0663	0.0569	0.0574	0.0532	0.0977	0.0548	0.0633	0.0572	0.0514	0.0609	0.0554	0.0535	0.054	0.0657	0.0675	0.0719	0.057		
MGESLFKGPRDYNPISSSICHLTNESDGHTTSLYGIGFGPFIITNKHLFRRNNGTLVVQSLHGVFKVKDTTTLQQHLVDGRDMIIIRMPKDFPPFPQKLKFREPQREERICLVTTNFQTKSMSEMVSDTSCTFPSGDGIFWKHWIQTKDGQCGSPLVSTRDGFIVGIHSASNFTNTNNYFTSVPKNFMELLTNQEAQQWVSGWRLNADSVLWGGHKVFMVKPEEPFQPVKEATQL [S124E]	0.0918	0.111	0.0824		0.0793		0.0594		0.0837	0.0735			0.0585	0.0926			0.06	0.0622	
MGESLFKGPRDYNPISSSICHLTNESDGHTTSLYGIGFGPFIITNKHLFRRNNGTLVVQSLHGVFKVKDTTTLQQHLVDGRDMIIIRMPKDFPPFPQKLKFREPQREERICLVTTNGQTKSMSSMVSDTSCTFPSGDGIFWKHWIQTKDGQCGSPLVSTRDGFIVGIHSASNFTNTNNYFTSVPKNFMELLTNQEAQQWVSGWRLNADSVLWGGHKVFMVKPEEPFQPVKEATQL [F117G]	0.0625	0.0842		0.0729			0.0588		0.0917	0.0871				0.0957	0.0581	0.0467		0.0583	
MGESLFKGPRDYNPISSSICHLTNESDGHTTSLYGIGFGPFIITNKHLFRRNNGTLVVQSLHGVFKVKDTTTLQQHLVDGRDMIIIRMPKDFPPFPQKLKFREPQREERICLVTTNFSTKSMSSMVSDTSCTFPSGDGIFWKHWIQTKDGQCGSPLVSTRDGFIVGIHSASNFTNTNNYFTSVPKNFMELLTNQEAQQWVSGWRLNADSVLWGGHKVFMVKPEEPFQPVKEATQL [Q118S]	0.0947		0.0833		0.0716	0.0871	0.051	0.0724	0.0864	0.0914	0.0531	0.0765	0.0693	0.0926	0.059	0.0677			
MGESLFKGPRDYNPISSSICHLTNESDGHTTSLYGIGFGPFIITNKHLFRRNNGTLVVQSLHGVFKVKDTTTLQQHLVDGRDMIIIRMPKDFPPFPQKLKFREPQREERICLVTTNFQTKDMSSMVSDTSCTFPSGDGIFWKHWIQTKDGQCGSPLVSTRDGFIVGIHSASNFTNTNNYFTSVPKNFMELLTNQEAQQWVSGWRLNADSVLWGGHKVFMVKPEEPFQPVKEATQL [S121D]	0.0704	0.115		0.095	0.0809	0.0584	0.0575		0.0927	0.0671			0.0684	0.102	0.0735	0.0681	0.0556	0.074	0.0614
